Hit rate of the full screen: of about 310,000 compounds, about 2,200 (0.71%) showed an effect of 50% or more. Effects have a minus sign here. This is one part of the list.
molecular target: human ether-à-go-go-related gene (hERG) potassium channel (human, UniProt Q12809); assay: primary screen, population patch clamp on CHO cells stably expressing hERG
Protocol: Briefly, Chinese hamster ovary (CHO) cells stably expressing the hERG channel were dislodged from tissue culture flasks and dispensed into PPC plates. […] During the recording, background leak currents were estimated by a 100 ms step to -80 mV from an initial holding potential of -70 mV and subtracted from the subsequent current measurement. The campaign was conducted in two phases using slight differences in recording protocol. In the first phase, the initial voltage pulse used a 100 ms step to -30 mV from a holding potential of -70 mV, a 2 s conditioning step to +25 mV, and a 2 s test step to -30 mV. During the second phase of the screen, the potential during the conditioning step was raised to +45 mV. In both phases of the campaign, a secondary voltage pulse was applied using the same parameters as the second phase initial pulse. The initial and secondary pulses were applied in the absence of compound, and upon application of 1 μM and 10 μM test concentrations. Small molecule effects on hERG current density were quantified by […].

Chain of human ether-à-go-go-related gene (hERG) potassium channel (Q12809 whole entry, looked up): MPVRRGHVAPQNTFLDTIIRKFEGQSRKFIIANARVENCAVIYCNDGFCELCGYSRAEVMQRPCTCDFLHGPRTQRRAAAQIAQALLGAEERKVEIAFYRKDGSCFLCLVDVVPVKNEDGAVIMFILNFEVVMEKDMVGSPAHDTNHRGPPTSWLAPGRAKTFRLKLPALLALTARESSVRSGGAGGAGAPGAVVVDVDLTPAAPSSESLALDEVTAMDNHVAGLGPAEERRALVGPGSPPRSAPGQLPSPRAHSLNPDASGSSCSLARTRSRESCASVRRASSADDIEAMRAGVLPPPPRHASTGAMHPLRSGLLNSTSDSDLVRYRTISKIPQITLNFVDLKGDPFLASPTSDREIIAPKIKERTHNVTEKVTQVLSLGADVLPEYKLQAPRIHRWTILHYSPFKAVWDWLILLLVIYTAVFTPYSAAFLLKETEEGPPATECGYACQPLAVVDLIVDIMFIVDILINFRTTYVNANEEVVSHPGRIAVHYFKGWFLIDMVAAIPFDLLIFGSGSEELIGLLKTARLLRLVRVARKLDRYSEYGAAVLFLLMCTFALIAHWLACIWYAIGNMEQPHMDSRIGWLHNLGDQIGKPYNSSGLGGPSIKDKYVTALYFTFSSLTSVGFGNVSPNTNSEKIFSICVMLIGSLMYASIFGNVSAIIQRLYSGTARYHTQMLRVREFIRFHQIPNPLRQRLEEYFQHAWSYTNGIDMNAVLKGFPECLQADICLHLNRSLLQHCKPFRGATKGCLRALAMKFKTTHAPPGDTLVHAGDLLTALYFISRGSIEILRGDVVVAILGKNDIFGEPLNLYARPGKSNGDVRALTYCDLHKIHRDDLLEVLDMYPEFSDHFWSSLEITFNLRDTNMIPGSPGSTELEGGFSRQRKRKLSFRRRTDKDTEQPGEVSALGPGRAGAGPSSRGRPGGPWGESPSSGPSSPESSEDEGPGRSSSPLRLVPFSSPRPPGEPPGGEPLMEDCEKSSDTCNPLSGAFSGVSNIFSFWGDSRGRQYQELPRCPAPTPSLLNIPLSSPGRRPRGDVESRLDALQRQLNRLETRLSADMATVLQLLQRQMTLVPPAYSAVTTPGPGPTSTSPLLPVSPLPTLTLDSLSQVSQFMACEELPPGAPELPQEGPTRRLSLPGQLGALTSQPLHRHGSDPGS

Row | SMILES | hERG current change (%, negative = inhibition) at 1uM [%]
1 | O=C(CNC(=O)c1ccccc1)NCC(=O)OCC(=O)c1ccc(F)cc1 | 4.44
2 | CCOc1ccc(OCC)c(NC(=O)CCNS(=O)(=O)c2cc(Br)cnc2N)c1 | 7.76
3 | COc1cccc(OC)c1C(=O)NCCN1CCN(C(=O)c2c(OC)cccc2OC)CC1 | 16.7
4 | CC1CCN(C(=S)NC(=O)c2ccccc2)CC1 | -6.35
5 | CCNc1nc(Cl)nc(N(NC(C)=O)C(C)C)n1 | 16.7
6 | CCCN(CCC)C(=O)CSc1nc2n[nH]c(C)c2c(=N)n1-c1ccc(OC)cc1 | 1.56
7 | COc1ccc(C2c3c(oc4ccccc4c3=O)C(=O)N2Cc2ccncc2)cc1OC (centres unmarked) | 5.97
8 | Cc1ccc(S(=O)(=O)NCc2ccccc2)cc1C(=O)N1CCN(c2ccccc2)CC1 | -2
9 | COc1ccc(C2=CC(=O)CC(c3ccc(OC)cc3)C2)cc1 (centres unmarked) | 9.13
10 | COc1ccc(Cc2nnc(NC(=O)c3ccccc3C)s2)cc1 | 7.37
11 | CC(C)Oc1ccc(CNC(=O)CC(c2ccccc2)c2cc(Cl)ccc2O)cc1 (centres unmarked) | 12.4
12 | CCNCCNC(=O)c1c(O)c2cccc3c2n(c1=O)CCC3.Cl | -1.5
13 | Cc1cccc(/C(N)=N/OC(=O)c2ccc(Br)o2)c1 | 9.79
14 | Cc1ccccc1NC(=O)CC1C(=O)Nc2ccccc2N1CC(=O)N(C)C1CCS(=O)(=O)C1 (centres unmarked) | 11.6
15 | O=C(NCc1ccccc1)c1onc(CSc2nc3ccccc3[nH]2)c1C(=O)NCc1ccccc1 | 16.2
16 | C/C(=N\NC(=O)C(O)c1ccccc1)c1cccnc1 (centres unmarked) | 16
17 | O=C(O)c1cccc(N2C(=O)c3cccc4cccc(c34)C2=O)c1 | 10.6
18 | CCOc1ccccc1N(CC(=O)NC1CCCC1)C(=O)CCCC(=O)Nc1ccccn1 | 7.65
19 | Cc1cc(C)n(C(=O)c2ccc(C)c(S(=O)(=O)N3CCCC3)c2)n1 | 14.4
20 | O=C(Nc1ccc(C(=O)Nc2ccccc2Cl)cc1)c1cccnc1 | 8.84
21 | Cc1cc([N+](=O)[O-])ccc1NC(=O)CSc1nncn1-c1cccnc1 | 0.276
22 | CC(C)CNC(=O)c1ccccc1NC(=O)c1ccc(CSc2ccccc2)cc1 | 3.65

Row | SMILES | hERG current change (%, negative = inhibition) at 1uM [%]
23 | Cc1nnc(-c2cnn(C)c2N)n1Cc1ccccc1F | 16.3
24 | CN(C)c1nc(Nc2ccc(Cl)c(Cl)c2)nc(N(C)C)n1 | 8.79
25 | Cc1cc(C)c(C)c(S(=O)(=O)Nc2cccnc2)c1C | 9.46
26 | CCCC1CCC(C(=O)Nn2cnc3ccccc3c2=O)CC1 (centres unmarked) | 3.38
27 | O=C(COc1ccccc1Br)NC1CC1 | 4.04
28 | Cc1cc(Cl)ccc1C(=O)C1CCCN(C(=O)c2n[nH]c3c2CCCC3)C1 (centres unmarked) | 13
29 | CCOC(=O)c1[nH]c2cc3c(cc2c1NC(=O)CN1CCN(CCO)CC1)OCO3 | -0.67
30 | COc1ccc(OC)c(Nc2nc(N)nc(CSc3nnc(N)s3)n2)c1 | 1.4
31 | O=C(N/N=C/c1cccs1)C(O)c1ccccc1 (centres unmarked) | 14.4
32 | CCN(CC)c1cccc(OCC(=O)N2c3ccccc3CC2C)c1 (centres unmarked) | -1.79
33 | CNNCc1ccc(C(=O)NC(C)C)cc1.Cl | 13.3
34 | Cc1onc(-c2ccccc2)c1C(=O)NC(CC(=O)O)c1ccc(OC(C)C)cc1 (centres unmarked) | 9.91
35 | O=C(c1ccc(OC2CCN(CCc3ccccc3)CC2)cc1)N1CCCC(CCCO)C1 (centres unmarked) | 9.15
36 | COc1ccccc1OCC(=O)Nc1cc2c(cc1C(=O)O)OCCCO2 | 11.9
37 | CCN(c1cccc(C)c1)S(=O)(=O)c1ccc2c(c1)N(C(C)=O)CCS2 | 2.7
38 | COc1ccc(N2CCN(C(=O)Cc3cccs3)CC2)cc1 | 13.8
39 | COc1ccccc1NC(=O)C1=C(C)N(c2ccccc2)C(=S)NC1c1cccc(C(F)(F)F)c1 (centres unmarked) | 1.92
40 | S=C(Nc1cccc(Cl)c1)NC1CC2CCCC(C1)N2C1CCCC1 (centres unmarked) | 17.4
41 | COc1ccccc1NS(=O)(=O)c1cc2c3c(c1)CCN3C(=O)CC2 | 9.25
42 | Cc1ccc(/C=N/NC(=O)CCSc2ccccc2)cc1 | 8.25
43 | CC(C)[C@H](NC(=O)c1ccc(F)cc1)C(=O)OCC(=O)NC(=O)c1cccn1C | -6.57
44 | COc1ccc(S(=O)(=O)Nc2nc3ccccc3s2)cc1OC | 8.18

— publication PMC4336329 (PLoS ONE, 2015)
